# Assay results reported in the supplement of paper PMC8728848.
# The other results are listed elsewhere or left out.
# B1: CvGal1 (Crassostrea virginica), A7Y0I5 (protein)
# chain: MTYQISKISQPFTSYIPNGLHIGKHLLLRGRVSYGTEAFAINLQQNPEPCNGEVAFHFNPRPGEQQCVRNSFDGGSWMDEERDQPHFPFDEGRSFTLRIEVAEEGFRTYVNGKPYVNFSHRLDLGNVHYLYLTEGAEFYDISYQDRYTLPYKSEIPQQMNVGKAVRIRGASQDNDGFSVNFACDPDNENCAFHFNPRPNEGVVVRNANLGGWGDEERDYEAEFPFHPYNYFDAMFICTDDKYLVHVNDKYFTEFNHRGGVDASSFFNIVGNLDIQDVEYFEPLEDDFVKTIPSGLVKGDVLIFRGFMKPGGDTFSINFMNGYSVEDDIAFHLNPRVGEGQVVMNCCMGGAWGDEEREDIPSPLADREPFEVKVVVKKNKFKVYVNGKKCMKFAARGNLEDIKGVNIKGEAYVYEVKLERKLEDSWEYLPGGFRVGGWVVVQAIPKKGSEGFAINFRTGSDEDSDIAFHFNPRLQENCTIRNSCAGGAWGGEERDQPDFPFEKKDTCEIAIQAQPDRFVTYVNGKRYIEFNHRLPLESITCVELTGRADFFEPKFF
# Legend:
# Experiment in all cases: glycan array binding signal (z-score within array); higher = stronger binding
# Settings in all cases: glycan notation: IUPAC condensed, linker removed
# [1] = biological target: GlcNAc(b1-3)Gal(b1-3)GalNAc
# Method in brief: (§1)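 Arrays were curated from the Consortium for Functional Glycomics database, 3228 in total, and kept only where the protein sequence was available. Binding is expressed as a within-array Z-score. This score was averaged across arrays of the same protein sequence at different concentrations or buffers and across linkers, and negative values can be read as non-binding.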
# GlcNAc(b1-3)Gal(b1-4)Glc = biological target: GlcNAc(b1-3)Gal(b1-4)Glc
# Method in brief: as §1
# [2] = biological target: GlcNAc(b1-3)Gal(b1-4)GlcNAc
# Method in brief: as §1
# [3] = biological target: GlcNAc(b1-3)Gal(b1-4)GlcNAc(b1-3)Gal(b1-4)GlcNAc
# Method in brief: as §1
# GlcNAc(b1-3)GalNAc = biological target: GlcNAc(b1-3)GalNAc
# Method in brief: as §1
# GlcNAc(b1-3)Man = biological target: GlcNAc(b1-3)Man
# Method in brief: as §1
# [4] = biological target: GlcNAc(b1-3)[GlcNAc(b1-4)][GlcNAc(b1-6)]GlcNAc
# Method in brief: as §1
# [5] = biological target: GlcNAc(b1-3)[GlcNAc(b1-6)]Gal(b1-4)GlcNAc
# Method in brief: as §1
# [6] = biological target: GlcNAc(b1-3)[GlcNAc(b1-6)]GalNAc
# Method in brief: as §1
# [7] = biological target: GlcNAc(b1-4)Gal(b1-4)GlcNAc
# Method in brief: as §1
# GlcNAc(b1-4)GlcNAc = biological target: GlcNAc(b1-4)GlcNAc
# Method in brief: as §1
# [8] = biological target: GlcNAc(b1-4)GlcNAc(b1-4)GlcNAc
# Method in brief: as §1
# [9] = biological target: GlcNAc(b1-4)GlcNAc(b1-4)GlcNAc(b1-4)GlcNAc(b1-4)GlcNAc
# Method in brief: as §1
# [10] = biological target: GlcNAc(b1-4)GlcNAc(b1-4)GlcNAc(b1-4)GlcNAc(b1-4)GlcNAc(b1-4)GlcNAc
# Method in brief: as §1
# [11] = biological target: GlcNAc(b1-4)[GlcNAc(b1-6)]GalNAc
# Method in brief: as §1
# [12] = biological target: GlcNAc(b1-6)Gal(b1-4)GlcNAc
# Method in brief: as §1
# GlcNAc(b1-6)GalNAc = biological target: GlcNAc(b1-6)GalNAc
# Method in brief: as §1
# GlcNAc3Prop(b1-4)GlcNAc = biological target: GlcNAc3Prop(b1-4)GlcNAc
# Method in brief: as §1
# [13] = biological target: GlcNAc6S(b1-3)Gal(b1-4)GlcNAc
# Method in brief: as §1
# Kdn(a2-3)Gal(b1-3)GalNAc = biological target: Kdn(a2-3)Gal(b1-3)GalNAc
# Method in brief: as §1
# Kdn(a2-3)Gal(b1-3)GlcNAc = biological target: Kdn(a2-3)Gal(b1-3)GlcNAc
# Method in brief: as §1
# Kdn(a2-3)Gal(b1-4)Glc = biological target: Kdn(a2-3)Gal(b1-4)Glc
# Method in brief: as §1
# Kdn(a2-3)Gal(b1-4)GlcNAc = biological target: Kdn(a2-3)Gal(b1-4)GlcNAc
# Method in brief: as §1
# [14] = biological target: Kdn(a2-3)Gal(b1-4)[Fuc(a1-3)]GlcNAc
# Method in brief: as §1
# Kdn(a2-6)Gal(b1-4)GlcNAc = biological target: Kdn(a2-6)Gal(b1-4)GlcNAc
# Method in brief: as §1
# [15] = biological target: Man(a1-2)Man(a1-2)Man(a1-3)Man
# Method in brief: as §1
# [16] = biological target: Man(a1-2)Man(a1-2)Man(a1-6)[Man(a1-3)]Man
# Method in brief: as §1
# Man(a1-2)Man(a1-3)Man = biological target: Man(a1-2)Man(a1-3)Man
# Method in brief: as §1
# [17] = biological target: Man(a1-2)Man(a1-3)[Man(a1-2)Man(a1-6)]Man
# Method in brief: as §1
# [18] = biological target: Man(a1-2)Man(a1-3)[Man(a1-2)Man(a1-6)]Man(a1-6)[Man(a1-2)Man(a1-2)Man(a1-3)]Man
# Method in brief: as §1
binder,measurement,setting,value
B1,glycan array binding signal (z-score),[1],-0.283
same,glycan array binding signal (z-score),GlcNAc(b1-3)Gal(b1-4)Glc,-0.241
same,glycan array binding signal (z-score),[2],-0.268
same,glycan array binding signal (z-score),[3],-0.23
same,glycan array binding signal (z-score),GlcNAc(b1-3)GalNAc,-0.26
same,glycan array binding signal (z-score),GlcNAc(b1-3)Man,-0.293
same,glycan array binding signal (z-score),[4],-0.252
same,glycan array binding signal (z-score),[5],-0.244
same,glycan array binding signal (z-score),[6],-0.277
same,glycan array binding signal (z-score),[7],-0.274
same,glycan array binding signal (z-score),GlcNAc(b1-4)GlcNAc,-0.28
same,glycan array binding signal (z-score),[8],-0.295
same,glycan array binding signal (z-score),[9],-0.215
same,glycan array binding signal (z-score),[10],-0.248
same,glycan array binding signal (z-score),[11],-0.23
same,glycan array binding signal (z-score),[12],-0.285
same,glycan array binding signal (z-score),GlcNAc(b1-6)GalNAc,-0.293
same,glycan array binding signal (z-score),GlcNAc3Prop(b1-4)GlcNAc,-0.255
same,glycan array binding signal (z-score),[13],-0.25
same,glycan array binding signal (z-score),Kdn(a2-3)Gal(b1-3)GalNAc,-0.264
same,glycan array binding signal (z-score),Kdn(a2-3)Gal(b1-3)GlcNAc,-0.228
same,glycan array binding signal (z-score),Kdn(a2-3)Gal(b1-4)Glc,-0.279
same,glycan array binding signal (z-score),Kdn(a2-3)Gal(b1-4)GlcNAc,-0.262
same,glycan array binding signal (z-score),[14],-0.255
same,glycan array binding signal (z-score),Kdn(a2-6)Gal(b1-4)GlcNAc,-0.242
same,glycan array binding signal (z-score),[15],-0.249
same,glycan array binding signal (z-score),[16],-0.221
same,glycan array binding signal (z-score),Man(a1-2)Man(a1-3)Man,-0.265
same,glycan array binding signal (z-score),[17],-0.258
same,glycan array binding signal (z-score),[18],-0.242
